54 compounds from publication PMC4336329 (PLoS ONE, 2015) can be followed below.

The campaign covered roughly 310,000 compounds. About 2,200 (0.71%) showed an effect of 50% or more. The effect is printed as a negative number. Some of the results follow.

The target in the test is human ether-à-go-go-related gene (hERG) potassium channel (human, UniProt Q12809). Nature of the test: primary screen, population patch clamp on CHO cells stably expressing hERG.
Chain of human ether-à-go-go-related gene (hERG) potassium channel (Q12809 whole entry, looked up): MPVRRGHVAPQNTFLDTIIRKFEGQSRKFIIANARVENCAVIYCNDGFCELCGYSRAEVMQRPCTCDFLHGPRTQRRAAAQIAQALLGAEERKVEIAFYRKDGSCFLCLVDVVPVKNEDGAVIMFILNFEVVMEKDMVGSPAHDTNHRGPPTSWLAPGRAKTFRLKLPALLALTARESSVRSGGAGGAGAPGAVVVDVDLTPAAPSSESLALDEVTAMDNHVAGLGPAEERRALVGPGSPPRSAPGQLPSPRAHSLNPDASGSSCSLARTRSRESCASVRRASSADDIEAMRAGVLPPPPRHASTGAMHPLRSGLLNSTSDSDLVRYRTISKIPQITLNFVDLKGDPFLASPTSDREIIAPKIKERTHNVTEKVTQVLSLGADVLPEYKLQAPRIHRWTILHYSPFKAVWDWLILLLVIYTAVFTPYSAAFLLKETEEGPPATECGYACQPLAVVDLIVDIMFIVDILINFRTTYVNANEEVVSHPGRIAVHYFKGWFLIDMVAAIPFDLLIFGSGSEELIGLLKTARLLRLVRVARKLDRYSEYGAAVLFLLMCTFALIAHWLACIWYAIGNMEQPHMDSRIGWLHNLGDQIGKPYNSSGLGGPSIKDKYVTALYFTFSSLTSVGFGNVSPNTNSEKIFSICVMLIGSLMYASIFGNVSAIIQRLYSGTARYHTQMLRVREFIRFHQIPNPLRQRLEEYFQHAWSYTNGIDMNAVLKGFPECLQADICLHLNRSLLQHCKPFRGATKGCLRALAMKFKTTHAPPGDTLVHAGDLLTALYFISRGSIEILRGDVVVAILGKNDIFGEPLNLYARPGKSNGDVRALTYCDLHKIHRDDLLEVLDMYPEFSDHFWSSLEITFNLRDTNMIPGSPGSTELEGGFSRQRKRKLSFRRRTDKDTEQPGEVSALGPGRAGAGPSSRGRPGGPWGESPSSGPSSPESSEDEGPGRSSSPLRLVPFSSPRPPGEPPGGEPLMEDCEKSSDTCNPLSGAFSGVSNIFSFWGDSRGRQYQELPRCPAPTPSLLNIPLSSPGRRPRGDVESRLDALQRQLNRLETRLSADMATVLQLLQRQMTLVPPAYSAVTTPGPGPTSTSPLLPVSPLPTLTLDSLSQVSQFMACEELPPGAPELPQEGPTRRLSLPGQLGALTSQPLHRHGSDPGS
Turning to `O=C(Cn1ncc2c3ccccc3n(Cc3ccccc3F)c2c1=O)N1CCN(c2ccccn2)CC1`, the “hERG current change (%, negative = inhibition) at 1uM” value stood at 12.3%.

With `Cc1n[nH]c(C)c1S(=O)(=O)N1CCCC(C(=O)NCC2COc3ccccc3O2)C1` (stereo not drawn), the “hERG current change (%, negative = inhibition) at 1uM” value is on record as 5.79%.

In the case of `CCCCn1c(=O)c(CCC(=O)OCC(=O)NCc2ccc(OC)c(OC)c2)nc2ccccc21`, the “hERG current change (%, negative = inhibition) at 1uM” value turned out to be 5.96%.

As to `O=C(c1ccc(-c2cccc(Cl)c2)o1)N1CCN(c2ccc([N+](=O)[O-])cc2)CC1`, the “hERG current change (%, negative = inhibition) at 1uM” value was -14.1%.

Regarding `CC(C)c1ccc(NC(=S)NCc2ccc3c(c2)OCO3)cc1`, the “hERG current change (%, negative = inhibition) at 1uM” value is 11.1%.

As for `O=C(COc1ccccc1)c1cn(CC(=O)N2CCCC2)c2ccccc12`, the “hERG current change (%, negative = inhibition) at 1uM” value was 10%.

For the compound `NNC(=O)c1cnn(Cc2ccccc2)c1N`, the “hERG current change (%, negative = inhibition) at 1uM” value was 9.01%.

Consider `CC1(C)SCC2C(=O)N3C(CSC3(C)C)C(=O)N21` (stereo not drawn), for which the “hERG current change (%, negative = inhibition) at 1uM” value was 13.8%.

In the case of `COc1ccccc1N(CC(O)COc1ccccc1)S(=O)(=O)c1ccccc1` (stereo not drawn), the “hERG current change (%, negative = inhibition) at 1uM” value worked out at 11.6%.

Regarding `Cc1occc1C(=O)N1CCN(S(=O)(=O)c2ccccc2)CC1`, the “hERG current change (%, negative = inhibition) at 1uM” value was determined as 13.6%.

`CNC(=O)CN(Cc1ccccc1)S(=O)(=O)c1ccccc1`: the “hERG current change (%, negative = inhibition) at 1uM” value is -5.14%.

For the compound `Cc1cc(OCc2cc(C(=O)N(Cc3nccn3C)C(C)C)no2)cc(C)c1Cl`, the “hERG current change (%, negative = inhibition) at 1uM” value is reported as 10%.

For `O=C(O)c1cccc(CN2C(=O)S/C(=C/c3cccc([N+](=O)[O-])c3)C2=O)c1`, the “hERG current change (%, negative = inhibition) at 1uM” value was 9.1%.

Consider `C/C(CC(=O)N1CCCC1)=N\NC(=O)c1cc2ccccc2cc1O`, for which the “hERG current change (%, negative = inhibition) at 1uM” value was found to be 10.7%.

As to `COc1ccc(OC)c(C2N(c3ccc(Cl)cc3)C(=O)C3CCCN32)c1` (stereo not drawn), the “hERG current change (%, negative = inhibition) at 1uM” value was determined as 14.6%.

With `O=C(COc1ccc(Cl)cc1)Nc1ccc2oc(=O)ccc2c1`, the “hERG current change (%, negative = inhibition) at 1uM” value was determined as 13.1%.

In the case of `Cc1cnc(C(=O)OCC(=O)Nc2oc(-c3ccccc3)c(-c3ccccc3)c2C#N)cn1`, the “hERG current change (%, negative = inhibition) at 1uM” value was 6.32%.

For the compound `COc1ccc(CN2C(=O)c3cccnc3C2=O)cc1S(=O)(=O)N1CCCC(C)C1` (stereo not drawn), the “hERG current change (%, negative = inhibition) at 1uM” value is reported as 13.9%.

Consider `Cc1ccnc(N2CCCC(C(=O)Nc3ccc(C)c(C)c3)C2)n1` (stereo not drawn), for which the “hERG current change (%, negative = inhibition) at 1uM” value is reported as 9.16%.

As to `COc1cc(Cl)c(C)cc1NC(=O)CSc1ccc(C)cc1`, the “hERG current change (%, negative = inhibition) at 1uM” value was 9.5%.

As to `O=C(NCCCN1CCOCC1)c1cc(-c2ccc(F)cc2)nc2ccccc12`, the “hERG current change (%, negative = inhibition) at 1uM” value turned out to be 5.37%.

Regarding `Cc1cc(N2C(=O)C(=O)/C(=C(/O)c3ccc(F)cc3)C2c2ccc(F)cc2)no1` (stereo not drawn), the “hERG current change (%, negative = inhibition) at 1uM” value is on record as 9.47%.

For `CC1=Nc2cc(C(=O)O)ccc2Sc2c(C)ccc(C)c21`, the “hERG current change (%, negative = inhibition) at 1uM” value was -2.93%.

For `CCOC(=O)C1(Cc2ccccc2C)CCCN(S(=O)(=O)CC)C1` (stereo not drawn), the “hERG current change (%, negative = inhibition) at 1uM” value amounted to 21%.

For `CCN(CC(=O)NC(C)C)Cc1nc2c(Br)cc(Br)cc2c(=O)[nH]1`, the “hERG current change (%, negative = inhibition) at 1uM” value was 11.9%.

With `O=C(NCc1cccs1)C1CCN(S(=O)(=O)c2ccccc2F)CC1`, the “hERG current change (%, negative = inhibition) at 1uM” value was found to be 11%.

`Cc1cccc(C)c1NC(=S)N1CCCN(C)CC1`: the “hERG current change (%, negative = inhibition) at 1uM” value was found to be 11.9%.

Consider `COCCNC(=O)/C(C#N)=C/c1cc(C)n(-c2ccc(C)cc2)c1C`, for which the “hERG current change (%, negative = inhibition) at 1uM” value amounted to 8.12%.

`COc1ccc(C)c2sc(NC(=O)C3CC3)nc12`: the “hERG current change (%, negative = inhibition) at 1uM” value is given as 7.32%.

On to `CCOC(=O)c1c(NC(=O)CN2CCN(C(=O)c3ccco3)CC2)sc(C)c1C`, for which the “hERG current change (%, negative = inhibition) at 1uM” value was 7.11%.

Consider `Cc1cc(N2C(=O)C3CCCN3C2c2ccc(Cl)c(Cl)c2)no1` (stereo not drawn), for which the “hERG current change (%, negative = inhibition) at 1uM” value is recorded as 13.6%.

On to `CC(C)(C)C1CCC(=NNC(=O)C(=O)NCc2ccco2)CC1` (stereo not drawn), for which the “hERG current change (%, negative = inhibition) at 1uM” value is given as -0.0958%.

With `O=C(COc1ccc(Cl)cc1[N+](=O)[O-])NC1CCCCC1`, the “hERG current change (%, negative = inhibition) at 1uM” value came out at 14.4%.

Turning to `Cc1cc(NC(=O)c2cccs2)ncc1NC(=O)C(C)C`, the “hERG current change (%, negative = inhibition) at 1uM” value was 8.65%.

`Cc1nc2ccc(NS(=O)(=O)c3ccc(F)c(F)c3)cc2s1`: the “hERG current change (%, negative = inhibition) at 1uM” value came out at 7.11%.

Regarding `COc1cc(C2C(C#N)=C(N)N(c3cccnc3)C3=C2C(=O)CCC3)ccc1O` (stereo not drawn), the “hERG current change (%, negative = inhibition) at 1uM” value is -4.41%.

With `COc1cccc(NS(=O)(=O)c2ccc(-c3coc(C)n3)cc2)c1`, the “hERG current change (%, negative = inhibition) at 1uM” value amounted to 16.8%.

For `O=C(COc1ccc(S(=O)(=O)N2CCOCC2)cc1)NCc1ccccn1`, the “hERG current change (%, negative = inhibition) at 1uM” value is reported as 8.36%.

`CCOC(=O)c1cnc2c(c(C3CC3)nn2C)c1N1CCOCC1`: the “hERG current change (%, negative = inhibition) at 1uM” value stood at 15.2%.

For the compound `N#Cc1cc(C(=O)c2cc(Cl)ccc2O)cn(CC2CCCO2)c1=O` (stereo not drawn), the “hERG current change (%, negative = inhibition) at 1uM” value is reported as 6.98%.

As to `Cc1ccc(N(C(=O)CNC(=O)c2ccco2)C(C(=O)NC2CCCC2)c2ccncc2)cc1` (stereo not drawn), the “hERG current change (%, negative = inhibition) at 1uM” value is on record as 15.9%.

As for `CSCC[C@@H](Nc1nc(-c2ccccc2)nc2c1oc1ccccc12)C(=O)O.Cl`, the “hERG current change (%, negative = inhibition) at 1uM” value is reported as -0.143%.

With `CCCCn1c(N)c(N(CC(C)C)C(=O)c2oc3c(Cl)cccc3c2C)c(=O)[nH]c1=O`, the “hERG current change (%, negative = inhibition) at 1uM” value amounted to 7.34%.

Take `CNc1nnc(CSc2nc3ccccc3s2)s1`: the “hERG current change (%, negative = inhibition) at 1uM” value is listed as 5.44%.

In the case of `O=C(O)C(=O)O.OC(CNc1ccccc1)Cn1ccc2ccccc21` (stereo not drawn), the “hERG current change (%, negative = inhibition) at 1uM” value was 2.97%.

In the case of `COC(=O)C(/C=N/OCc1ccc([N+](=O)[O-])cc1)NC(=O)c1ccccc1` (stereo not drawn), the “hERG current change (%, negative = inhibition) at 1uM” value is reported as -11.9%.

As to `O=C(CNCc1ccc(Cl)cc1)Nc1ccc(C(=O)N2CCCCC2)cc1.O=C(O)C(=O)O`, the “hERG current change (%, negative = inhibition) at 1uM” value amounted to 12.9%.

Take `CCCCn1nc(C(=O)N(C)CC(=O)Nc2cccc(F)c2)c2ccccc2c1=O`: the “hERG current change (%, negative = inhibition) at 1uM” value was found to be 16%.

For `O=C(NCC1CCCO1)c1ccc2c(=O)n(Cc3cccc(Br)c3)c(=S)[nH]c2c1` (stereo not drawn), the “hERG current change (%, negative = inhibition) at 1uM” value worked out at 11.1%.

Take `CC(C)C(C(=O)Nc1sc2c(c1C#N)CCCCC2)N1C(=O)c2ccccc2C1=O` (stereo not drawn): the “hERG current change (%, negative = inhibition) at 1uM” value turned out to be 3.9%.

Regarding `O=C(CSc1nc2nc(-c3cccs3)cc(C(F)(F)F)c2c(=O)[nH]1)Nc1c(F)c(F)c(F)c(F)c1F`, the “hERG current change (%, negative = inhibition) at 1uM” value was determined as 7.2%.

Turning to `CC(NC(=O)c1ccco1)C(=O)Nc1nc(-c2ccccn2)cs1` (stereo not drawn), the “hERG current change (%, negative = inhibition) at 1uM” value is recorded as -0.934%.

As for `Cc1ccc(S(=O)(=O)CC(C)N2CCOCC2)c(S(=O)(=O)CC(C)N2CCOCC2)c1` (stereo not drawn), the “hERG current change (%, negative = inhibition) at 1uM” value was -4.92%.

In the case of `O=C(OCc1ccc(COC(=O)c2ccccn2)cc1)c1ccccn1`, the “hERG current change (%, negative = inhibition) at 1uM” value is on record as 18.1%.
